Results: the supplement of paper PMC3334620
Whole data set: some 33,000 sequences, median “E-score (-0.5 to 0.5)” near -0.021, cut for the highest 2% near 0.32. The list shows a part of the results.

biological target: T1, Zap1 (UniProt P47043); experiment: PBM E-score (8-mer binding enrichment) (E-score (-0.5 to 0.5)); higher = stronger / more preferred TF binding; most listed sequences are background and not binding sites; settings: protein concentration: 200 nM; construct: GST-full length
T1 sequence: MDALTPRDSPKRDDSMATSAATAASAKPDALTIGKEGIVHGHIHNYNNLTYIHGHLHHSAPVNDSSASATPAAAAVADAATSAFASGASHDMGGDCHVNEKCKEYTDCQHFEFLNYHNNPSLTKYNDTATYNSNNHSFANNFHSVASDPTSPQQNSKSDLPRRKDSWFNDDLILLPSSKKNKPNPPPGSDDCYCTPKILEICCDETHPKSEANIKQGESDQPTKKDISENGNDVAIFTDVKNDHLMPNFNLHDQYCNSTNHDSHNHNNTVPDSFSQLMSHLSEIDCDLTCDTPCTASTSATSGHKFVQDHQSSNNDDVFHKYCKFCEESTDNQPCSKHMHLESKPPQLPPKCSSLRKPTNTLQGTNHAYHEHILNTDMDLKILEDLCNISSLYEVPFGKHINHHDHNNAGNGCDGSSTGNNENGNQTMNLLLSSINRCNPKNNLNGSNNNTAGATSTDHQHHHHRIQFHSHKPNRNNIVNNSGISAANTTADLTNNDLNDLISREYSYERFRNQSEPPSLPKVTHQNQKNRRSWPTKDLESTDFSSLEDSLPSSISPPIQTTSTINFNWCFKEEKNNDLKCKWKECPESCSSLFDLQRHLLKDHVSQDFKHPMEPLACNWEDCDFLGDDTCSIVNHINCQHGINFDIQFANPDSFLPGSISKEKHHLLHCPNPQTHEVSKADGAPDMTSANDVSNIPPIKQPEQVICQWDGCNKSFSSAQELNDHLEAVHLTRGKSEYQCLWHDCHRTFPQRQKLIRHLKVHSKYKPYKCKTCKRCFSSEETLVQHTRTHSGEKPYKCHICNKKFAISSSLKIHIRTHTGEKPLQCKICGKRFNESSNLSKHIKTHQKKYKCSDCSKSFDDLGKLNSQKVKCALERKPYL
Method in brief: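 E-scores (a modified Wilcoxon-Mann-Whitney statistic) were assigned by the Universal PBM Analysis Suite to every ungapped eight-base word pooled with its reverse complement. The input came from universal all-10-mer Agilent arrays made double-stranded by primer extension and probed with GST-tagged yeast transcription factors at about 100-200 nM. Fluorescent anti-GST detected bound protein, and masliner normalised the scans.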

Sequence	PBM E-score
ACCATCAT	0.00541
GTTAAATA	0.0734
CAGCACGA	-0.035
GAACGGCA	-0.167
AGTATGTG	-0.0541
GCCGCTAC	-0.0893
CACGTAAC	0.102
ATCTGATC	-0.0664
CCGTCGCC	-0.109
AAACAGAC	0.0939
GGTGAATA	0.00465
ACGGACTA	-0.0835
CGCTTAAG	-0.206
TAACCGAA	0.319
GGTAGGAA	0.0109
ATCAAAAT	0.0514
AACGTTCA	-0.31
AGGGCATC	-0.246
CATGCGTA	-0.0136
TGCACGCA	-0.222
CCAAGAAA	0.114
AATACTAA	0.121

Sequence	PBM E-score
GGAACCAC	0.0961
CATCCAGG	-0.133
CACTATAA	0.0739
ATATACTC	0.0106
AGCGTATA	0.0878
AAGCCGGC	-0.182
CCAAGGTC	0.224
GCGGTCTA	0.137
ACGCAGCT	-0.0894
AGCAATTG	0.0286
GTGACCTA	0.307
CGTGGTAG	0.0289
AAATCCGA	-0.0415
CGCTGATC	0.00876
CCTTGTAC	-0.0336
CCCCATAC	0.148
AGCTCAGG	-0.154
AGTTTTGG	0.134
CGGTGGAC	-0.0133
CCTGGAGA	0
GACATGGA	-0.177
CCTCCTCC	-0.18

Sequence	PBM E-score
GATCGATC	-0.218
CACTCGAG	-0.0649
GATGTGAC	0.0907
CAACTACA	0.0874
CCCTGGGA	-0.0527
GCCAGCCA	-0.264
ATGTACCA	0.109
AGAAACCC	0.24
AGCAGCCA	-0.259
TAATGTAA	0.216
GACTTGAA	-0.0697
CCCTGAAG	0.094
AAAGGGAT	0.0855
GCTTACAA	0.0851
AGCCTCGA	0.0348
CGTTCTAC	-0.0565
CTCTCCTC	-0.25
ACCCGCGG	0.243
AGAAAGCC	-0.118
CAATGGAG	-0.145
TACCCGCA	0.364
CAAGAAAA	0.209

Sequence	PBM E-score
AGTCACCG	-0.126
CTCGGGCA	-0.108
CGAGCCGA	-0.0651
ATGACTCC	-0.184
CTTAGTGA	-0.0219
AGACCATA	0.191
AAGGGCCG	-0.00893
GGTACCCA	0.411
AACATGCC	-0.132
CCGCTACA	-0.0477
ATTACCAA	0.18
GCAAGTCC	-0.205
AATCGATG	0.0352
AAAGGTAC	0.426
TCCCCCGA	-0.312
CATGTCAC	0.00341
ATACTGAG	-0.0113
ATGCGAAG	-0.242
CCAAAATA	0.17
AGGTTGCA	0.299
